# The campaign covered roughly 45,000 compounds. About 200 (0.44%) were called active. Inconclusive results (about 7%) are left out. Calls come from the whole dose curve; as a rule, active = well fitted activation curve with a large enough effect; inconclusive = small, poorly fitted or top-dose-only effect; inactive = no such curve, though single readings can be large or run the other way. Some of the results follow.
# Test: qHTS of TDP-43 Inhibitors: NCGC Sytravon Library Screen; note: 0% is about no effect; nearly all actives have a fitted effect of over 55% in size
# Settings: yeast TDP-43 toxicity rescue, BacTiter-Glo growth, 24 h; series mostly up to 46.1 µM; growth rescue (activation): at the top concentration
# Method in brief: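 TDP-43-expressing yeast, pregrown in raffinose, seeded at OD600 0.02 in galactose medium with compound for 24 hr at 30 deg C. Growth read by BacTiter-Glo luminescence, so rescue of toxicity appears as activation.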
row,Compound,growth rescue (activation)
1,CN(C(=O)COC(=O)c1ccc2ccccc2n1)C1CCCCC1,inactive: -2.96%
2,c1ccc(CNc2c3c(nc4ncnn24)CCC3)cc1,inactive: 17.9%
3,CCCCC(=O)Nc1ccc(NC(=S)NC(=O)CC)cc1OC,inactive: -10.6%
4,NC(=O)C1CCN(C(=O)c2ccc3c(c2)S(=O)(=O)c2ccccc2C3=O)CC1,inactive: 3.13%
5,CCCn1c(O)c(CN2CCCCC2)c(C)c(C#N)c1=O,inactive: 8.08%
6,CCC1CCCCN1S(=O)(=O)c1ccc(NC(=O)c2ccncc2)cc1 (configuration not stated),inactive: 13.4%
7,CCN(CC)C(CNC(=O)CSc1nnnn1-c1c(C)cccc1C)c1ccco1 (configuration not stated),inactive: 24.4%
8,NS(=O)(=O)c1ccc(NC(=O)C(=O)NCCC(=O)O)cc1,inactive: 6.85%
9,Cc1cccc(C(=O)NC2CCN(C(=O)Nc3ccc(F)cc3)CC2)c1,inactive: -7.3%
10,O=C(Nc1nc(-c2ccc(Cl)cc2)cs1)NC1CCCCC1,inactive: -0.906%
11,FC(F)(F)c1cnc(NNC(=S)Nc2ccc(Cl)cc2)c(Cl)c1,inactive: 22.5%
12,NC(=O)C1CCN(C(=O)CNC(=O)c2ccc(F)cc2)CC1,inactive: 4.46%
13,COc1cc(CC(=O)N/N=C/c2ccc([N+](=O)[O-])cc2)c([N+](=O)[O-])cc1OC,inactive: -32%
14,O=C(OCN1C(=O)c2ccccc2C1=O)c1cccnc1SC(F)F,inactive: 24.3%
15,COc1cc(C)c(Br)cc1S(=O)(=O)NCCN1CCOCC1,inactive: 3.1%
16,Fc1ccccc1CSc1ncnc2sc3c(c12)CCCC3,inactive: 9.6%
17,COc1ccc(-c2[nH]nc3nc(-c4cc(OC)c(OC)c(OC)c4)cc(C(=O)O)c23)cc1,inactive: 12.2%
18,O=C1C(Cc2ccc(F)cc2)SC(=Nc2ccccc2)N1c1ccccc1 (configuration not stated),inactive: 2.28%
19,O=c1c2ccccc2nc(CSc2nnnn2-c2ccccc2)n1-c1ccccc1,inactive: 15.1%
20,COc1ccc(Cl)cc1-n1c(C)ccc1C,inactive: -1.21%
21,CC1NC(=S)N(Cc2ccccc2)C1=O (configuration not stated),inactive: -7.19%
22,CCc1nc2c(OCc3ccc(C(F)(F)F)cc3)cccn2c1N(C)C(=O)C1CC1,inactive: 3.27%
23,COc1cc(/C=C(\C#N)C(=O)NCC2CCCO2)ccc1OCC(=O)O (configuration not stated),inactive: -17.7%
24,C#CCN1C(=O)C(O)(CC(=O)/C=C/C=C/c2ccccc2)c2ccccc21 (configuration not stated),inactive: 11.9%

row,Compound,growth rescue (activation)
1,CCN=C1SC(CC(=O)NC(C)c2ccccc2)C(=O)N1CC (configuration not stated),inactive: 6.71%
2,CCOc1ccc(/C=C/C(=O)Nc2ccccc2C(F)(F)F)cc1,inactive: 25%
3,Cc1cccn2c(=O)c(C=O)c(Nc3ccccc3)nc12,inactive: -5.21%
4,Cc1ccc(CNC(=O)c2cccnc2Cl)cc1,inactive: 8.36%
5,COC(=O)C(C)Oc1ccc(=O)[nH]n1 (configuration not stated),inactive: 8.95%
6,COc1cccc(C(C(=O)NC(C)(C)C)N(Cc2ccco2)C(=O)CCC(=O)Nc2cc(C)on2)c1OC (configuration not stated),inactive: -19.9%
7,COc1cc(-c2nc3ncccn3c2Nc2ccc(C)cc2C)ccc1O,inactive: 10.5%
8,Cc1cc(=O)oc2cc(NC(=O)c3cccc(F)c3)ccc12,inactive: 0.997%
9,COc1ccccc1C(=O)N1CCN(Cc2nc(CC3CC3)no2)CC1,inactive: -1.05%
10,NC(Cc1ccc(C(F)(F)F)cc1)c1csc(Nc2ccccn2)n1 (configuration not stated),inactive: 17.2%
11,CC1(CC(=O)N/N=C/c2ccc(-c3ccc(Cl)cc3)o2)OCCO1,inactive: 13.6%
12,CCCNC(=O)COC(=O)/C=C/c1cccc(F)c1,inactive: 11.3%
13,COCCN(C(=S)Nc1ccc(OC)cc1)C1CCN(C(C)=O)CC1,inactive: 28.6%
14,Cc1noc(C)c1-c1ccc(C(=O)NCCC(F)(F)F)c2occc12,inactive: 17.9%
15,CC(Sc1nncn1C)C(=O)NCCC1=CCCCC1 (configuration not stated),inactive: 0.269%
16,Cc1nc(SCC(=O)Nc2ccccn2)n[nH]1,inactive: 16.5%
17,O=S(=O)(c1cccc(-c2nnc3n2CCCCC3)c1)N1CCOCC1,inactive: 9.19%
18,COc1cc(CNC(=O)c2cc(-c3ccc(F)cc3OC)n[nH]2)cc(OC)c1,inactive: 17.5%
19,O=C(Cc1n[nH]c(=O)c2ccccc12)N/N=C/c1cc2c(cc1Cl)OCO2,inactive: 2.79%
20,O=C(Nc1ccc(NC(=O)N2CCN(c3ccccc3O)CC2)cc1)N1CCN(c2ccccc2O)CC1,inactive: -11.9%
21,O=C(NC(c1ccccc1)c1ccc2ccccc2n1)C1CCN(Cc2ccc(Cl)c(Cl)c2)CC1 (configuration not stated),inactive: -0.162%
22,O=C(CN1CCCC1)Nc1ccc([N+](=O)[O-])cc1,inactive: 9.94%
23,Cc1cc(NCCCO)n2c(nc3ccccc32)c1C#N,inactive: 24.7%
24,CCc1ccc(NC(=S)N2CCC(NC(=O)c3ccccc3)CC2)cc1,inactive: -1.59%

row,Compound,growth rescue (activation)
1,Cc1ccc2oc(C(=O)NCc3ccccc3)cc(=O)c2c1,inactive: 13.3%
2,Cn1c(=O)c2ccccc2n(CC(=O)NC2CCCC2)c1=O,inactive: -20%
3,CCN(CC)CCNS(=O)(=O)c1ccc(C(=O)NN)cc1,inactive: 22%
4,Cc1cc(Cl)ccc1NC(=S)N1CCN(C(=O)C2CCCO2)CC1 (configuration not stated),inactive: 0.503%
5,COc1cc(NC(=O)C2CCC(=O)N2S(=O)(=O)c2ccc(C)cc2)cc(OC)c1 (configuration not stated),inactive: 0.944%
6,CCc1nc2ccc(C(=O)NCc3ccccc3OC)cn2c1N(C)Cc1ccc(N(C)C)cc1,inactive: -4.62%
7,COc1cc(NC(=O)COC(=O)c2ccc3ccccc3n2)cc(OC)c1,inactive: 14.1%
8,CCOC(=O)NC(=O)CSc1nnc(SCCC(=O)O)s1,inactive: -4.75%
9,Cc1ccc(/C(O)=C2/C(=O)C(=O)N(Cc3cccnc3)C2c2ccccn2)cc1 (configuration not stated),inactive: 27.9%
10,O=c1c2oc3ccccc3c2ncn1Cc1ccc(F)cc1,inactive: 19.1%
11,COc1cc(CNCCc2ccccc2)cc(Br)c1OCC(=O)Nc1ccccc1C,inactive: 0.335%
12,COc1cccc(NCc2cc(=O)oc3cc(C)c(O)cc23)c1,inactive: -7.61%
13,COc1ccc(-c2nc(NC(=O)c3c(C)noc3C)sc2C)cc1,inactive: 11.3%
14,COc1cc(C2NC(=O)NC(C)=C2C(C)=O)ccc1O (configuration not stated),inactive: -4.41%
15,Cc1cc2nc3c(c(=O)n2[nH]1)CCCC3,inactive: 8.75%
16,O=C(N/N=C/c1cc(Br)cc(Br)c1O)c1ccncc1,inactive: 24.3%
17,COc1cccc(CN2CCN(Cc3ccon3)CC2CCO)c1 (configuration not stated),inactive: -14.6%
18,CN(C(=O)c1ccco1)c1nnc(-c2ccc(F)cc2)s1,inactive: -8.33%
19,COc1cc(NC(=O)c2cccc3c(-c4cccnc4)coc23)cc(OC)c1OC,inactive: 6.44%
20,CCOC(=O)c1cc(NC(=O)N(C(C)C)C2CCCCC2)c(C)nc1C,inactive: -19.8%
21,COC(=O)c1sc(NC(=O)CSc2nc3cccnc3n2C)nc1C,inactive: 4.48%
22,CCOP(=O)(OCC)c1cccc(P(=O)(c2ccccc2)c2ccccc2)c1O,inactive: 9.9%
23,CCOc1ccc(N2CC(C(=O)NCCN3C(=O)S/C(=C\c4cccnc4)C3=O)CC2=O)cc1 (configuration not stated),inactive: 5.43%
24,CC(Cc1cccs1)NC(=O)Nc1ccc(F)cc1 (configuration not stated),inactive: 4.91%

# Source: PubChem BioAssay AID1347073 (National Center for Advancing Translational Sciences (NCATS), 2019)
